Experimental data published in the supplement of paper PMC4604168 (melanoma cell lines).
The other results are listed elsewhere or left out. Repeats are few or missing, and single values can be far off.

test system: IST-MEL1; test: cell count relative to DMSO control; melanoma cells; higher = more viable cells; conditions: library dose: standard library concentration; 72 h
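Also: cells treated in 1,536-well plates, then fixed and DAPI-stained, with nuclei counted from automated high-throughput microscope images.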

Row | Compound | cell count [%]
1 | Cn1cnc2c(F)c(Nc3ccc(Br)cc3Cl)c(C(=O)NOCCO)cc21 [selumetinib] + O=C(O)C(=O)Nc1sc2c(c1C(=O)O)CCNC2 [TCS401] (first compound 0.075 µM, partner dose 8.33333 µM) | 111
2 | COc1cc([C@@H]2c3cc4c(cc3[C@@H](O[C@@H]3O[C@@H]5CO[C@@H](C)O[C@H]5[C@H](O)[C@H]3O)[C@H]3COC(=O)[C@H]23)OCO4)cc(OC)c1O [etoposide] + C=C(c1ccc(C(=O)O)cc1)c1cc2c(cc1C)C(C)(C)CCC2(C)C [Bexarotene] (first compound 0.1 µM, partner dose 10 µM) | 96.9
3 | C[C@]1(O)C[C@@H](c2nc(-c3ccc4ccc(-c5ccccc5)nc4c3)c3c(N)nccn32)C1 + C=C(c1ccc(C(=O)O)cc1)c1cc2c(cc1C)C(C)(C)CCC2(C)C [Bexarotene] (first compound 2 µM, partner dose 10 µM) | 82.9
4 | C[C@]1(O)C[C@@H](c2nc(-c3ccc4ccc(-c5ccccc5)nc4c3)c3c(N)nccn32)C1 + NC1(c2ccc(-c3nc4ccn5c(=O)[nH]nc5c4cc3-c3ccccc3)cc2)CCC1 [MK2206] (first compound 2 µM, partner dose 2 µM) | 91.3
5 | COc1cc([C@@H]2c3cc4c(cc3[C@@H](O[C@@H]3O[C@@H]5CO[C@@H](C)O[C@H]5[C@H](O)[C@H]3O)[C@H]3COC(=O)[C@H]23)OCO4)cc(OC)c1O [etoposide] + Cn1c(Nc2ccc(C(F)(F)F)cc2)nc2cc(Oc3ccnc(-c4ncc(C(F)(F)F)[nH]4)c3)ccc21 [CHIR265] (first compound 0.1 µM, partner dose 0.4 µM) | 81.1
6 | Cn1cnc2c(F)c(Nc3ccc(Br)cc3Cl)c(C(=O)NOCCO)cc21 [selumetinib] + O=c1cc(-c2cccc3c2Sc2ccccc2S3)oc(N2CCOCC2)c1 [KU55933] (first compound 0.075 µM, partner dose 5 µM) | 90.6
7 | C[C@]1(O)C[C@@H](c2nc(-c3ccc4ccc(-c5ccccc5)nc4c3)c3c(N)nccn32)C1 + Nc1ncn([C@H]2C[C@H](O)[C@@H](CO)O2)c(=O)n1 [decitabine] (first compound 2 µM, partner dose 0.5 µM) | 89.7
8 | COc1cc([C@@H]2c3cc4c(cc3[C@@H](O[C@@H]3O[C@@H]5CO[C@@H](C)O[C@H]5[C@H](O)[C@H]3O)[C@H]3COC(=O)[C@H]23)OCO4)cc(OC)c1O [etoposide] + O=C(Nc1ccccc1)c1cc([N+](=O)[O-])ccc1Cl [GW9662] (first compound 0.1 µM, partner dose 10 µM) | 92.7
9 | CCN(CC)CCNC(=O)c1c(C)[nH]c(/C=C2\C(=O)Nc3ccc(F)cc32)c1C [sunitinib] + NC1(c2ccc(-c3nc4ccn5c(=O)[nH]nc5c4cc3-c3ccccc3)cc2)CCC1 [MK2206] (first compound 2 µM, partner dose 2 µM) | 76.1
10 | Cn1cnc2c(F)c(Nc3ccc(Br)cc3Cl)c(C(=O)NOCCO)cc21 [selumetinib] + COCC[n+]1c2c(n(Cc3cnccn3)c1C)C(=O)c1ccccc1C2=O [YM155] (first compound 0.075 µM, partner dose 0.002 µM) | 36.5
11 | Cn1cnc2c(F)c(Nc3ccc(Br)cc3Cl)c(C(=O)NOCCO)cc21 [selumetinib] + NC1(c2ccc(-c3nc4ccn5c(=O)[nH]nc5c4cc3-c3ccccc3)cc2)CCC1 [MK2206] (first compound 0.075 µM, partner dose 2 µM) | 79.4
12 | COc1cc([C@@H]2c3cc4c(cc3[C@@H](O[C@@H]3O[C@@H]5CO[C@@H](C)O[C@H]5[C@H](O)[C@H]3O)[C@H]3COC(=O)[C@H]23)OCO4)cc(OC)c1O [etoposide] + COc1cc(Nc2ncc(F)c(Nc3ccc4c(n3)NC(=O)C(C)(C)O4)n2)cc(OC)c1OC [Tamatinib] (first compound 0.1 µM, partner dose 2 µM) | 73.7
13 | Cn1cnc2c(F)c(Nc3ccc(Br)cc3Cl)c(C(=O)NOCCO)cc21 [selumetinib] + CC(C)C[C@H](NC(=O)[C@H](Cc1ccccc1)NC(=O)c1cnccn1)B(O)O [Bortezomib] (first compound 0.075 µM, partner dose 0.005 µM) | 10.5
14 | COc1cc([C@@H]2c3cc4c(cc3[C@@H](O[C@@H]3O[C@@H]5CO[C@@H](C)O[C@H]5[C@H](O)[C@H]3O)[C@H]3COC(=O)[C@H]23)OCO4)cc(OC)c1O [etoposide] + Oc1nc(-c2ccc(C(F)(F)F)cc2)nc2c1CSCC2 [XAV939] (first compound 0.1 µM, partner dose 10 µM) | 100
15 | COc1cc([C@@H]2c3cc4c(cc3[C@@H](O[C@@H]3O[C@@H]5CO[C@@H](C)O[C@H]5[C@H](O)[C@H]3O)[C@H]3COC(=O)[C@H]23)OCO4)cc(OC)c1O [etoposide] + COc1ccc(C2=N[C@@H](c3ccc(Cl)cc3)[C@@H](c3ccc(Cl)cc3)N2C(=O)N2CCNC(=O)C2)c(OC(C)C)c1 [Nutlin-3] (first compound 0.1 µM, partner dose 0.5 µM) | 113
16 | Cn1cnc2c(F)c(Nc3ccc(Br)cc3Cl)c(C(=O)NOCCO)cc21 [selumetinib] + COc1ccc(COc2ccc(Cc3cnc(N)nc3N)cc2OC)cc1 [GW2580] (first compound 0.075 µM, partner dose 5 µM) | 105
17 | C[C@]1(O)C[C@@H](c2nc(-c3ccc4ccc(-c5ccccc5)nc4c3)c3c(N)nccn32)C1 + Cn1c(=O)n(-c2ccc(C(C)(C)C#N)cc2)c2c3cc(-c4cnc5ccccc5c4)ccc3ncc21 [NVP-BEZ235] (first compound 2 µM, partner dose 0.02 µM) | 74.8
18 | Cn1cnc2c(F)c(Nc3ccc(Br)cc3Cl)c(C(=O)NOCCO)cc21 [selumetinib] + O=C(O)c1ccc(-c2c[nH]c3ncc(-c4ccccc4)cc23)cc1C1CCCC1 [GSK650394] (first compound 0.075 µM, partner dose 0.8 µM) | 91.9
19 | COc1cc([C@@H]2c3cc4c(cc3[C@@H](O[C@@H]3O[C@@H]5CO[C@@H](C)O[C@H]5[C@H](O)[C@H]3O)[C@H]3COC(=O)[C@H]23)OCO4)cc(OC)c1O [etoposide] + COc1ccc2c(c1)CCC1C2CCC2(C)C(NCCCCCCN3C(=O)C=CC3=O)CCC12 [U73122] (first compound 0.1 µM, partner dose 2 µM) | 103
20 | COc1cc([C@@H]2c3cc4c(cc3[C@@H](O[C@@H]3O[C@@H]5CO[C@@H](C)O[C@H]5[C@H](O)[C@H]3O)[C@H]3COC(=O)[C@H]23)OCO4)cc(OC)c1O [etoposide] + COc1ccc(-c2ccc3c(N4CCOCC4)nc(N4C[C@@H](C)O[C@@H](C)C4)nc3n2)cc1CO [KU0063794] (first compound 0.1 µM, partner dose 0.1 µM) | 90.4
21 | COc1cc([C@@H]2c3cc4c(cc3[C@@H](O[C@@H]3O[C@@H]5CO[C@@H](C)O[C@H]5[C@H](O)[C@H]3O)[C@H]3COC(=O)[C@H]23)OCO4)cc(OC)c1O [etoposide] + Cc1cc(N2CCOCC2)cc2[nH]c(-c3c(NC[C@@H](O)c4cccc(Cl)c4)cc[nH]c3=O)nc12 [BMS536924] (first compound 0.1 µM, partner dose 1 µM) | 104
22 | Cn1cnc2c(F)c(Nc3ccc(Br)cc3Cl)c(C(=O)NOCCO)cc21 [selumetinib] + CN1CCN(c2ccc3nc(-c4c(N)c5c(F)cccc5[nH]c4=O)[nH]c3c2)CC1 [Dovitinib] (first compound 0.075 µM, partner dose 0.5 µM) | 45.8
23 | C[C@]1(O)C[C@@H](c2nc(-c3ccc4ccc(-c5ccccc5)nc4c3)c3c(N)nccn32)C1 + O=S(=O)(c1ccccc1)N(CC(F)(F)F)c1ccc(C(O)(C(F)(F)F)C(F)(F)F)cc1 [T0901317] (first compound 2 µM, partner dose 7 µM) | 102
